# Results taken from PubChem BioAssay (NCATS).
# This list was built around the results that the source calls inconclusive (neither active nor inactive); the mix of calls is not that of the screen. For some of these results: No potency is given beside an inconclusive call; the fits are too rough. The source made the active and inactive calls. Unless noted, the call rests on the fitted dose curve; in most records, active means well fitted curve in the direction sought with a large enough effect; inconclusive means small, poorly fitted or top-dose-only effect, or another doubt; inactive means no such curve, though single readings can be large; an effect the other way counts as inactive or inconclusive.
# Legend:
# [1] = molecular target: Cytochrome P450 2C9 (Homo sapiens) (UniProt P11712); assay: Cytochrome P450 family 2 subfamily C member 9 (CYP2C9) small molecule antagonists: luciferase biochemical (cell-free) qHTS assay (AID 1645842; active means well fitted curve in the direction sought with a large enough effect in the repeat runs; inconclusive means weak or mixed curves; inactive means no such curve, though single readings can be large; an effect the other way counts as inactive or inconclusive; further: nearly all actives have a fitted effect of over 55% in size; further: potency means the concentration at half of the fitted maximal effect)
# Procedure, shortened: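 Luminescence, after 20 min with luciferin detection reagent, reflected CYP2C9 turnover during a 1 h NADPH-driven reaction at 37C. Enzyme-substrate mix contained 0.4% bovine serum albumin and was preincubated with compound 10 min at room temperature.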
# [2] = Primary qHTS for inhibitors of nuclear receptor binding SET domain protein 2 (NSD2) in an isogenic RCH-ACV NSD2 p.E1099K mutant (9B) (AID 1645876); further: potency means the concentration at half of the fitted maximal effect; nearly all actives have a fitted effect of over 70% in size
# [3] = Primary qHTS for inhibitors of nuclear receptor binding SET domain protein 2 (NSD2) in an RCH-ACV wild type WT cells (2C) (AID 1645877); further: potency means the concentration at half of the fitted maximal effect; nearly all actives have a fitted effect of over 70% in size
# [4] = molecular target: N-terminal Xaa-Pro-Lys N-methyltransferase 1 (Homo sapiens) (UniProt Q9BV86); assay: Confirmatory qHTS for Inhibitors of N-terminal methyltransferase 1 (NTMT1): MTaseGlo Assay (AID 1645874); further: nearly all actives have a fitted effect of over 65% in size; further: potency means the concentration at half of the fitted maximal effect
# Procedure, shortened: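 Preincubation of NTMT1 (125 nM) plus SAM (100 uM) with test compounds lasted 15 min; methylation of 1 uM SPKRIA then proceeded 30 min in the dark at room temperature. Luciferase signal reported SAH produced.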
# C2A = assay: qHTS profiling for inhibitors of Plasmodium falciparum proliferation (AID 504749); further: nearly all actives have a fitted effect of over 60% in size; further: potency means the concentration at half of the fitted maximal effect;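 on activity, negative = inhibition: 0% = DMSO vehicle and full inhibition = artemisinin control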; conditions: P. falciparum in erythrocytes, SYBR Green DNA, 72 h; series mostly up to 28.7 µM
# Procedure, shortened: (§1)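 P. falciparum-infected erythrocytes (0.3% parasitemia, 2.5% hematocrit) incubated with compound 72 h at 37 C, 5% CO2. Parasite DNA detected by SYBR Green after lysis, overnight at room temperature; normalised to 0.29 uM artemisinin and DMSO.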
# DFO2036 = assay: as above; conditions: P. falciparum in erythrocytes, SYBR Green DNA, 72 h; series mostly up to 28.7 µM
# Procedure, shortened: as §1
# DIV17 = assay: as above; conditions: P. falciparum in erythrocytes, SYBR Green DNA, 72 h; series mostly up to 28.7 µM
# Procedure, shortened: as §1
# JCK = assay: as above; conditions: P. falciparum in erythrocytes, SYBR Green DNA, 72 h; series mostly up to 12.8 µM
# Procedure, shortened: as §1
# PC49 = assay: as above; conditions: P. falciparum in erythrocytes, SYBR Green DNA, 72 h; activity, negative = inhibition: at 28.7 µM (top of the series)
# Procedure, shortened: as §1
# W2 = assay: as above; conditions: P. falciparum in erythrocytes, SYBR Green DNA, 72 h; series mostly up to 28.7 µM
# Procedure, shortened: as §1
# [5] = qHTS Assay for Identifying Gametocytocidal Compounds (AID 743244);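 further: on the % scale 0 is the no-effect control and ±100 the full control effect; actives lower the fluorescent signal which means gametocytes are killed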; conditions: P. falciparum 3D7 stage III-V gametocytes, alamarBlue, 72 h; max response: active compounds read low
# Procedure, shortened: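 Viability read-out was resazurin reduction (alamarBlue, 24 h) measured at Ex 525/Em 598 nm. Beforehand, late-stage (III-V) 3D7 P. falciparum gametocytes at 20,000 cells/well were incubated with compound 72 h at 37C under 5% CO2.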
# [6] = molecular target: Luciferin 4-monooxygenase (Photinus pyralis) (UniProt P08659); assay: Biochemical firefly luciferase enzyme assay for NPC (AID 624030); further: potency means the concentration at half of the fitted maximal effect; nearly all actives have a fitted effect of over 70% in size
# Procedure, shortened: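 Purified P. pyralis luciferase at 10 nM in 50 mM Tris Acetate (final), luminescence read within 5 minutes of enzyme addition to compounds. Activity normalised to PTC124 versus DMSO; concentration-response curves classed by r2, magnitude and activity.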
# [7] = molecular target: Glutathione peroxidase 1 (Homo sapiens) (UniProt P07203); assay: Primary qHTS Assay for Inhibitors of Recombinant Selenoprotein Glutathione Peroxidase 1 (GPX1) (AID 1845191); further: potency means the concentration at half of the fitted maximal effect; nearly all actives have a fitted effect of over 65% in size
# Procedure, shortened: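 GR-coupled assay: compounds preincubated 30 min at room temperature with GPX1, then reaction started with CHP; final 10 nM GPX1, 1 mM GSH, 0.5 mM CHP, 0.5 mM NADPH, 100 nM GR, 0.01% BSA, pH 7.5 Tris buffer. NADPH fluorescence (340/450 nm) read at 0 and 15 min.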
# [8] = molecular target: Phospholipid hydroperoxide glutathione peroxidase GPX4 (Homo sapiens) (UniProt P36969); assay: Primary qHTS Assay for Inhibitors of Recombinant Selenoprotein Glutathione Peroxidase 4 (GPX4) (AID 1845192); further: potency means the concentration at half of the fitted maximal effect; nearly all actives have a fitted effect of over 65% in size
# Procedure, shortened: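 GR-coupled assay: recombinant GPX4 preincubated 30 min with compound at room temperature; final 200 nM GPX4, 1 mM GSH, 0.5 mM cumene hydroperoxide, 0.5 mM NADPH, 100 nM GR, 0.01% BSA, pH 7.5 Tris. NADPH fluorescence (340/450 nm) read at 0 and 15 min.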
# [9] = Primary fluorescence-based thiol-reactive (MSTI) qHTS assay for identification of artifact compounds. (AID 1845221);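 further: thiol-reactive compounds lower the probe fluorescence signal; nearly all actives have a fitted effect of over 65% in size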
# Procedure, shortened: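 Thiol-reactive compounds detected by quenching of 4 uM MSTI fluorescence (525/598 nm) after 1 h room-temperature dark incubation in PBS pH 7.4, 2% DMSO. qHTS titration; percent inhibition Hill-fitted against Acetyl-MSTI/MSTI controls.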
# [10] = Primary redox qHTS assay for identification of artifact compounds. (AID 1845223); further: potency means the concentration at half of the fitted maximal effect
# Procedure, shortened: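 Amplex Red (25 uM) and HRP (250 mU/mL) in HBSS, with compounds for 15 min, then 250 uM DTT for 30 min, room temperature, dark. Fluorescence 525/598 nm read; normalized to DMSO and 10 uM DA3003; Hill fit.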
# Tags describe the fitted curve by direction and shape.
# UniProt P11712, sequence (P11712 whole entry, looked up): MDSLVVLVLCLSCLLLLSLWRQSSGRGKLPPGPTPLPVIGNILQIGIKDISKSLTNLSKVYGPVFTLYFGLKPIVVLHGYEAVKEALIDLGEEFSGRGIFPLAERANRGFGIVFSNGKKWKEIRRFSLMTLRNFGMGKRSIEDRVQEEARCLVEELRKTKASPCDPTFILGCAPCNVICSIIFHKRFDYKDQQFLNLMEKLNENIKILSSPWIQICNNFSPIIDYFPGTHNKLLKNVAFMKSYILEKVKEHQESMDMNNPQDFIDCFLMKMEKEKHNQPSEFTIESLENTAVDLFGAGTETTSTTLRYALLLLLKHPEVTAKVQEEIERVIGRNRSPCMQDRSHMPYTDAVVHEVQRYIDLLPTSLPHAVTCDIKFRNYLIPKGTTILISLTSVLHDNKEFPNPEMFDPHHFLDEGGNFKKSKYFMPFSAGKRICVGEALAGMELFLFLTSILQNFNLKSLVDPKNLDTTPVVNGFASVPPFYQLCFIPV
# UniProt Q9BV86, sequence (Q9BV86 whole entry, looked up): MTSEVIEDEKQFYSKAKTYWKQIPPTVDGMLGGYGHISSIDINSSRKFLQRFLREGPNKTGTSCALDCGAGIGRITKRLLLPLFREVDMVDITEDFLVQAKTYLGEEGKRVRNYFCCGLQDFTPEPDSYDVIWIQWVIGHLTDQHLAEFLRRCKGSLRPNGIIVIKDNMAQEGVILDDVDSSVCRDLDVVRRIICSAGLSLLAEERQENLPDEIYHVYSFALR
# UniProt P07203, sequence (P07203 whole entry, looked up): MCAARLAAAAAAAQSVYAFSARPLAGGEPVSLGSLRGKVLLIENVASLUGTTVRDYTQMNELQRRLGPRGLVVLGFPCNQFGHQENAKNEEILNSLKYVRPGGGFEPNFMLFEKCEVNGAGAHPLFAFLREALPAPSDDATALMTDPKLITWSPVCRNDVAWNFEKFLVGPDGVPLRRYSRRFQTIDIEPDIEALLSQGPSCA
# UniProt P08659, sequence (P08659 whole entry, looked up): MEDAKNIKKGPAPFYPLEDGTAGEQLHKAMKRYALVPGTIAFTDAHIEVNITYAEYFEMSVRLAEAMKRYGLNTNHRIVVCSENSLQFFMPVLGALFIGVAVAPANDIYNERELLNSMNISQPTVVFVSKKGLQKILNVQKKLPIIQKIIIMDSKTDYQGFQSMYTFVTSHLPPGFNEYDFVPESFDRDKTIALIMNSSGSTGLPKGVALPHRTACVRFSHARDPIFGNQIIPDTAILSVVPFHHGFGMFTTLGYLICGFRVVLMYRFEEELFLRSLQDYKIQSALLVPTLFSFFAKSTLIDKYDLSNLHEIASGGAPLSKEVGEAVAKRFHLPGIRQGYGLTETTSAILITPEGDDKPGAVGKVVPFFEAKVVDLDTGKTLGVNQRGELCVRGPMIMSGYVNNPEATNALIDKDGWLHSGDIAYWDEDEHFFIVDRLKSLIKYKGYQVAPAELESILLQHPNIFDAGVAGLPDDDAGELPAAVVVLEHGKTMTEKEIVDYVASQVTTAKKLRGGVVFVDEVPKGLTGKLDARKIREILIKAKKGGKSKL
# UniProt P36969, sequence (P36969 whole entry, looked up): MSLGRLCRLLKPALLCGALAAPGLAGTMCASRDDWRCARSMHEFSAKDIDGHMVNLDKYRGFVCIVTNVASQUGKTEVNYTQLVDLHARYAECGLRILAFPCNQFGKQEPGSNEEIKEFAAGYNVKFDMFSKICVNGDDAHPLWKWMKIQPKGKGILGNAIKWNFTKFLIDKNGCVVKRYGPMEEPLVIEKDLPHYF
structure (smiles),measurement,setting,value
COc1cccc(Cn2ncc3c4sc(S(C)=O)cc4n(C)c3c2=O)c1 (stereo not given),Potency,[1],active: 12 µM
same,Potency,[2],"inconclusive [inhibitor, partial curve, poor fit]"
same,Potency,[3],"inconclusive [inhibitor, single point]"
Cc1c(Cl)cccc1Nc1nn2c(=O)c3ccccc3nc2s1,Potency,[4],"inconclusive [inhibitor, partial curve]"
CC(C)=CCC/C(C)=C/CC/C(C)=C/CC/C=C(\C)CC/C=C(\C)CCC=C(C)C,Potency,[1],"inconclusive [inhibitor, partial curve, poor fit]"
same,Potency,C2A,inactive
same,Potency,DFO2036,inactive
same,Potency,DIV17,inactive
same,Potency,JCK,"inconclusive [inhibitor, full curve, poor fit]"
same,Potency,PC49,"inconclusive [inhibitor, full curve, poor fit]"
same,Potency,W2,inconclusive [activator]
CCOc1ccccc1N1CC(c2nc3ccccc3n2CCCCOc2cc(C)ccc2C)CC1=O (stereo not given),Potency,[4],inactive
Clc1ccc(-c2nc3ccccc3s2)cc1,Potency,[4],"inconclusive [inhibitor, partial curve]"
COc1cc2c(NC3CCN(C4CCCCC4)CC3)nc(N3CCCN(C)CC3)nc2cc1OCCCN1CCCCC1,Potency,[4],"inconclusive [inhibitor, partial curve]"
Cc1ccc(-c2nc3ccccn3c2Nc2ccc3c(c2)OCCO3)s1,Potency,[4],"inconclusive [inhibitor, full curve]"
COC[C@H](c1ccc(C(F)(F)F)cc1)N1CCN(C2(C)CCN(C(=O)c3c(C)ncnc3C)CC2)C[C@H]1C,max response,[5],inactive: -5.74%
same,Potency,[1],"inconclusive [inhibitor, single point]"
CC(=O)Nc1sc2c(c1-c1nc3ccccc3s1)CCN(C)C2,Potency,[4],"inconclusive [inhibitor, partial curve]"
NC(=O)C1CCN(c2nc(-c3ccc(F)cc3)cs2)CC1,Potency,[4],"inconclusive [inhibitor, single point]"
Cc1ccc(S(=O)(=O)Nc2ccccc2C(=O)Nc2nc(-c3ccccc3)c(Br)s2)cc1,Potency,[4],"inconclusive [inhibitor, full curve]"
O=C(Nc1ccc2c(c1)CCC2)Nc1nnc(-c2ccncc2)s1,Potency,[4],"inconclusive [inhibitor, partial curve]"
Cc1cccc(C(=O)Nc2nc3c(s2)CCCC3)c1,Potency,[4],"inconclusive [inhibitor, partial curve]"
C[S+](=O)([O-])Nc1ccc(-c2ccc3nc(-c4ccc(OC(F)(F)F)cc4)[nH]c3c2)cc1,Potency,[1],"inconclusive [inhibitor, full curve]"
Cc1ccc(-n2ncc3c(N4CCCCC4)ncnc32)cc1,Potency,[4],"inconclusive [inhibitor, partial curve]"
Cc1cccc(Nc2nc(NCCO)nc(N3CCCC3)n2)c1,Potency,[4],"inconclusive [inhibitor, partial curve]"
CC1(C)S[C@@H]2[C@H](NC(=O)C(C(=O)Oc3ccc4c(c3)CCC4)c3ccccc3)C(=O)N2[C@H]1C(=O)O (stereo not given in full),Potency,[6],"inconclusive [inhibitor, partial curve, poor fit]"
same,Potency,[1],"inconclusive [inhibitor, partial curve, poor fit]"
same,Potency,[7],"inconclusive [inhibitor, full curve]"
same,Potency,[8],active: 8.91 µM
COc1ccc(C2(O)CCC(N3CC[C@@H](NC(=O)CNC(=O)c4cccc(C(F)(F)F)c4)C3)CC2)cn1 (stereo not given in full),Potency,[1],inactive
same,Potency,[3],"inconclusive [inhibitor, partial curve, poor fit]"
same,Potency,[9],inactive
same,Potency,[10],"inconclusive [activator, partial curve, poor fit]"
Cc1ccc(-n2ncc3c(NCCO)ncnc32)cc1Cl,Potency,[4],active: 31.6 µM
Cc1ccc2nc(Cl)c3cc(C(=O)N4CCCC(C)C4)sc3c2c1 (stereo not given),Potency,[4],"inconclusive [inhibitor, full curve]"
COc1ccc(-c2nnc3n2N=C(c2cc(OC)ccc2OC)CS3)cc1,Potency,[4],"inconclusive [inhibitor, partial curve]"
COc1ccc(-n2nc3c(N4CCCC(C(=O)NCc5ccc(C)cc5)C4)nnc(C)c3c2C)cc1 (stereo not given),Potency,[1],inactive
Cc1ccccc1CNC(=O)CCCn1c(=O)c2cccn2c2cccnc21,Potency,[1],"inconclusive [inhibitor, partial curve]"
CC1(C)[C@H]2C[C@H](C/C=C\CCCC(=O)O)[C@@H](NC(=O)c3csc4ccc(O)cc34)[C@@H]1C2,Potency,[1],active: 1.34 µM
same,Potency,[7],"inconclusive [inhibitor, single point]"
